Target: insulin receptor-A on CHO-hIR cells (human)
Assay: cell-based or functional assay

% maxERK/% maxAKT: 0.26
Elisa hIR pY1158 max (% of human insulin) (% of human insulin): 10
B1: N{Epsilon-B28}-17-carboxyheptadecanoyl-[GluA14,PheB5,GlyB26,LysB28],des-(B29-B30)-Insulin (ligand)
chain 1: not shown
chain 2: FVNQFLCGSHLVEALYLVCGERGFFGTK
modifications: here or on the partner: Lys B28: N-epsilon acylated with C18 diacid, no linker
